# ± gives the standard deviation of the averaged measurements. Whole data set: some 4,000 sequences, median “arbitrary fluorescence units” near 830, cut for the highest 2% near 6,500. Most of the strongest results are missing from this list.
# Target: RUNX1 (UniProt Q01196)
# Assay: RUNX1 binding intensity (PBM fluorescence), RUNX1 alone (arbitrary fluorescence units); higher = stronger binding
# Settings: RUNX1 concentration 2 nM; ETS1 concentration 0 nM
# Method: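 gcPBM on 36-bp genomic-derived probes (partner site mutated) containing one RUNX1 site and no ETS1 site. Recombinant human RUNX1 (2 nM) was incubated alone or with ETS1 (25 nM) and detected by anti-RUNX1 antibody fluorescence. Values are medians over 4 replicate spots (not normalised). The probes sit in constant array flanks that are not printed.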
# 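Further: Full-length recombinant human RUNX1 bound to double-stranded DNA microarray spots, detected with an Alexa488-labelled secondary antibody after the anti-RUNX1 primary, read as scanned spot fluorescence.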
# UniProt Q01196, sequence (Q01196 whole entry): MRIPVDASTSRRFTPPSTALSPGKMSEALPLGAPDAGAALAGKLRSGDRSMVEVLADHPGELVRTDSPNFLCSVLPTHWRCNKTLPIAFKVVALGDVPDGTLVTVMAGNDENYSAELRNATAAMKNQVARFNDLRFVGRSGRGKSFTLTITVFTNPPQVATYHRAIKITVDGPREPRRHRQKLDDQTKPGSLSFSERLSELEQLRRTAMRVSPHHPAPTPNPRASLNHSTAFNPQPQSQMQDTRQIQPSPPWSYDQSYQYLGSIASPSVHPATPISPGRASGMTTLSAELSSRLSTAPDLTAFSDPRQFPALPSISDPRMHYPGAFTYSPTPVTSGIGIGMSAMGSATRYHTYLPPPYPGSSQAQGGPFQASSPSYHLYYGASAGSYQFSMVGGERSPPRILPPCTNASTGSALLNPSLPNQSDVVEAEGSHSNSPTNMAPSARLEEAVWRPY
row,Sequence,RUNX1 binding intensity
1,CCCGCTCCTGCGGCGCAAGCCCGCCTTGCTGAAGAA,875
2,GCCCTGCGGGCAGGAGAAGAGTCCGTAAATGGAAAT,768
3,AAGACAACATGCTGCCGGCACAGCCTGCGGGTTACT,741
4,ACCATGCTGTAGTCTGTTAAGTGAGCAACCGCATTA,787
5,CATCTGTGGTCTCCTTGAAGTCAGATCCCACAGGAG,886
6,TAAGAGATTGCCTGTAAAGGTAACCACCAGCAAAGA,752
7,TTGACTGTGGGCCGAAGCCGGGCCGAAGCAGACAGG,691
8,GACCTCCTTCTCCACATACCTGAAAGTGGTTTCTGG,1030
9,ACAGTATTGTGGTGAATCATTCCATTCCAAGGCTCA,966
10,CTTTGTGGTCTGCCAGGCACGGATCTCCGCCCACTC,2250
11,AGTCAAACAGGGTGTGGCTGGGGAGGCGGTTGTCAC,799
12,TGGCATTCTCCTTCATGTCTCCTAACCACAGCCCAC,2220
13,AAAAATACCACACTAGCTAGGGCAGCAAGTGGGTGG,905
14,ATCTTGTTCAGGCTCAAAGGGAAACCGCTGCTTTTC,914
15,GGTGACGTCACCGCGTTCACCAGCCCGGGAGTGCGC,734
16,TGGCTTGTTTCAGGTTCCTCTGTGGCGCCGTTCTCG,822
17,AGAAGCTGCACCCTGAAATGAAACCACCAGGACCTC,757
18,GGTTGCCGGGTGAAAAAAAAAAAAAAAACCACGCCA,906
19,GGCAGACAGTAAACCGCGGCGTTTCATGGAGGGCGC,1290
20,TGGCCGCGGTCTGTAGACGCCCGGCTCCGGGAGTGC,721
21,GTGGAAGAAACCGCTTCGGCAGCAGAGGAATCAGCA,837
22,GCCTCCTTCATGGGCTCCTTTAAGAGGGTGGTAACG,782
23,ACCCACTTGCTGTTAGAGCATCTTTGCAACCACAGG,729
24,CGTTCTCTCATTTGCTGTGTGCACCCACATGAACCA,1580
25,CGGTAGGCGGTTATCCTCCAAGCTGGCAGGGAGCGC,748

row,Sequence,RUNX1 binding intensity
1,GGGAGGACGAAGGGGCTGTGTGTGGGAGTTGGGGGC,710
2,TCTTTAAAACCCGAAAGTTCCTGTGGTTCATACGCT,1010
3,ATGAAACCAAAACCAAAAAGGAAGGTAACCAGAAAG,839
4,TCGGGAGGTGGCATGCTGACTCACCTGTGGCTTGTT,797
5,CTGACTTGTTGTGGTCTCTGCCACTTGCTGGGGTGT,947
6,GCTCTGTGGGCTTGGAGGATGCAGGCGCCTTCATGG,766
7,CCGTAAGCGGTCTTTCCCCGAGCTGAAGCACAATGC,882
8,GGAACAGTAAACAAAGAAAGGTGCTGTTGTGGCGCC,676
9,CTCTTAACTCGCGGTCCCGCCCCTTCAGGCCAGTGT,1110
10,AGAGTCTTTTTTACTGAGCGTTTGCGGTTTTGACTT,8560
11,TTTCCACTGCCTGTTCTACTTGTGGCTACTGACTCA,856
12,AATCATTGCCTGCCCTAACGTTTGTGGTCTGCCTAG,813
13,CAGGGCCTGTGGTGCCTTGCGCAGCGGAGATGGCGC,679
14,TATTCATGACATGCTGTCGGGCTTGTGGGCTGCGTA,737
15,CCTCCTCTTCGTCCCCACTCTGCACATGCGGCTGGG,1160
16,GGGTCGCGGCCTTACGGCGAACGCGGTTACCGTGGA,816
17,GAAACCACACCAGCAAGCTTAAGTACATGAAGAATA,946
18,GCAAAAACAGCGGTCTTGAAGGCAGCCTGCCTGATA,765
19,GGTTTAACGTCTCCGGTTTGTGGCTAGTTTCTTGTC,947
20,CACCTCCCACTCACCACAGAGTTTCATGGTGTTTTA,1090
21,ATCTTCAGGGAGCGGTATCAACCTGAAAACCACCAC,928
22,GGCTGAAGGTTGCCGTGCTTGGAAACCGCGCCTCCG,804
23,AGTGTAGTAACCACAGGCCCCGAAAACCTCCCCCTC,3630
24,CCCGGCCACTGCCGCCTATTGCGGGCGTCGGCTAGG,644
25,GCCCTCACCGCAGTTCCTGCCCAACGACATACGGGT,3800

row,Sequence,RUNX1 binding intensity
1,GCGCGGACTCCGAGAAGCTGAGCGGTAAAGACCGTG,701
2,GCGGCCTGCGGGAGGACGGTGGTGCTTTCCAGCCTA,970
3,AGCCCGCCGAAAACTAGCGTCACCGCGCCAAGGTTC,771
4,CCGGGTAGGATCCAGTTGCCTTTCTGCGGTGGAGGA,839
5,GTTTGAAGGGAACTGGGTGTTGACCTGCGGGCAACT,694
6,TGGTTTGTGGGACACCTCAACAGCATGTTAGTGAGG,726
7,GCTTGACCTCAACACCTGCTACACTGCCTGAAGACA,1160 ± 47
8,TACTCTAAACCACTTCAAACCTCCACTTGCTGCCCC,1340
9,TGAAGGGACGGAGGGGACAGAACTTGCGGGAGGCAC,689
10,AGCCGGAGGCGCAAGGAGCAGCGCTACCGCAGCGTC,738
11,AATCTGTGGTTTCCACTGTTAGAATTTACTGCCTCT,2100
12,GTGGCTGCTGTGGTCAGGCTGTTCTTTCATGTTGCT,1660
13,CCGCCCTTCAGGCTGGCCCCGCTCAGTCACCCGCAG,975
14,CCGAGAAGTGGAACCGCCAGGCGGAGGGGGCGGAGT,767
15,ATAGTGCGGTGAGCCAACATGGGGGAGATGCCTGGA,827
16,GCCGGGAATGCGGGCTCTCCTGCCGTAAGCTGCCCC,800
17,AGTTTCTCCATGAAGCGCTGAGGTTTTCTCAGAAGT,812
18,TCGCTTACGGTGTCGGTTACAGACTGTGGTTGCCAT,812
19,TGTGGCCAGCACGCAAGAGCCCCACCACATGTGCTT,775
20,GACAATGTAGTGGTTGTCAGGAGGTTGCTAAGTCAT,716
21,CGGGTACCGCAAGGGACAAACGGCGAGGCCGAACTC,902
22,TAACTACGTCCTTTTACTATCTACCACAATTTAATT,1200
23,AAACCTGTGGCTAGTGGGGGCCATGAAGGATCTGTT,869
24,TGGAAGGCTGGAAAAGGTTTACCACCACACTCCGGT,606
25,CAAGGTTGACCACACACCACCCTGTCGGAGCAGCTC,1490

row,Sequence,RUNX1 binding intensity
1,TATGTGGAGTAACCGCCTTCAGTTTTCTGGTTCTGA,763
2,CAAAAGTGGTTGATGAACATTAGAATCAGGCAATGG,670
3,AGTCTCGCGGTGCTTGAACCAGCGAAAGTGACGTCG,675
4,CGAACTCCCGTACGGCCGCGCCCGCAGCCCGCCGCC,866
5,CGGTCCCGGCGCCTGAAGTTTTAGCTGCGGTGGCGG,740
6,TGTGTAAGAGGCAACACCAAAACCACAAATATGAAA,2010
7,GTGATGGCACCCACAAAGCTGCAGAGGAGGTGAGCA,800
8,CGATTCTGGAGACAGGCCCCACCGTGCGGTAAACTG,799
9,GAGCAGGGCTGCGGGGTCTTTACCGTCGGGCTCCGC,699
10,TTCAATCACAGTAAACAGACGTCACCCACAGACCTA,877
11,TGCCAGATCCAGCTGCGCCGGGGCCGAAACCACGCC,688
12,TGTGAGAAGTCGGATCCTGTGGTGACCCAGTGGCCT,755
13,GAAAACCACAGAGGCATTCAAAGACATGAAGCAGAG,2350
14,TATTCAGGCTTACGGGTGATGTTTGTGGCCACCCGG,746
15,ATGCCAAGGGACCTCCCTCCACAACCGCCCCCAGCT,930
16,CTCTCCACCTCCTCCCGACCAGGACCGCACCCCCCC,1780
17,AAGATGCCCCCTTCAGCTGGAAAGCGGTAATGCCCA,800
18,CTGACACTCCCGGGAGCCTTGTAGCCACAGGAATCA,757
19,CAGCTGCGGGCCTGGGTGTACGGAGCCCCGAACAGG,721
20,TGCACCCGCCACTTTCGCATCGAACCGCCGCTTCAA,1050
21,GGCGCCCGGGAATCTGTGTGGCGCTGCGGGCCGCGC,616
22,CCTCCGCTGTGGTGTCTGTAACTACTGCCTCAGGAG,808
23,CAGGCTGCTGTGGCTACTGCAGCACTGCCTCCCGCT,741
24,GTATCACTGCCTGTTTTCCTCTGTGGCTTACTGCTG,1090
25,CGGGTCCTGCGGGCGCTGGCGGCAAGAGGCGAGGCG,736

row,Sequence,RUNX1 binding intensity
1,CTCGTCAACCACACGTCACCCCGCCTACCTCCCGAC,1500
2,TTGTGGTTTGGTTTAACCCCTGTAATTGCCTGTAAA,1030
3,GCCGCGCTTTTCGGAGCTGGTCGCCGCAGCGAACAA,836
4,TGCTCCACTCCGCAACGCTGCTGTGATTTGCTGTTT,808
5,GTGTGGTGAGCCACAGGCTGCCATAGACTCGGAGGC,728
6,CCGCCACCGCAGCTAAAACTTCAGGCGCCGGGACCG,1290
7,CGGCGCTCGCCGAAGTGCCGCGGTGCCTGCTCTGCA,773
8,CTCACTGTGGTGCTATACTTTGTCTCCTTTCTCTTT,1090
9,CCTTGTTCACAGCCTTGCACTCTGCGGGGACGGGAG,880
10,CAAAGCAACCACCACCTGGTGGCGCCACCTCCCCCC,944
11,CGGAGCCCAACCACCGGCACTTTCGGGGGGCGGGTG,831
12,TCTACCCTTCATGCTCTGGCCTGGGCTGTGGTAGCT,709
13,TCCTCCCACACCCACAGGCTTCCAGCCATAGCTGCA,1190
14,GCGCGGTGTAGCAATTGGAGGACCCATGAAGAAGGG,826
15,ATGGCAACCACAGTCTGTAACCGACACCGTAAGCGA,977
16,CCCTTGTGGCCATGTTACACGCCAGCAAATTGAGCT,1930
17,CTTGCGGTCCCCTCGGGTGGTGGCAGCATGTAGGTA,956
18,CAATGTGGTTAAAACCAGTTAGTTCCCTCGGAGGTT,2060
19,CCGACCGCAGGGGCGGGGCCGGAGCCAGCAAGCGCT,1070
20,GGGGGAATGTAGGACGTATCATCGCCCACAAGAAAG,809
21,TCCAGCATGTGCTGAACCTCCAGAAACCACCGGCTT,802
22,CCTAAGCGGTTAAGGAACTGGCTTTGACAGGCAGTG,865
23,GTGCAGACAGGCAATAGCTGCTCTGCGGCAGCCCGA,712
24,CCACCACCCACAGCAGCTGCAAACGTCCTCCAGACC,1080
25,CCCTGCCTGAGGGCAAGGCGAGGGCACCCACAGCCT,781
